# Hit rate of the full screen: of about 310,000 compounds, about 14,000 (4.5%) showed an effect of 50% or more. Effects have a minus sign here. Some of the results follow.
# Target: human ether-à-go-go-related gene (hERG) potassium channel (human, UniProt Q12809)
# Experiment: primary screen, population patch clamp on CHO cells stably expressing hERG
# 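Further: peak tail current of the secondary pulse compared with the same well before compound.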
# Sequence of human ether-à-go-go-related gene (hERG) potassium channel (Q12809 whole entry, looked up): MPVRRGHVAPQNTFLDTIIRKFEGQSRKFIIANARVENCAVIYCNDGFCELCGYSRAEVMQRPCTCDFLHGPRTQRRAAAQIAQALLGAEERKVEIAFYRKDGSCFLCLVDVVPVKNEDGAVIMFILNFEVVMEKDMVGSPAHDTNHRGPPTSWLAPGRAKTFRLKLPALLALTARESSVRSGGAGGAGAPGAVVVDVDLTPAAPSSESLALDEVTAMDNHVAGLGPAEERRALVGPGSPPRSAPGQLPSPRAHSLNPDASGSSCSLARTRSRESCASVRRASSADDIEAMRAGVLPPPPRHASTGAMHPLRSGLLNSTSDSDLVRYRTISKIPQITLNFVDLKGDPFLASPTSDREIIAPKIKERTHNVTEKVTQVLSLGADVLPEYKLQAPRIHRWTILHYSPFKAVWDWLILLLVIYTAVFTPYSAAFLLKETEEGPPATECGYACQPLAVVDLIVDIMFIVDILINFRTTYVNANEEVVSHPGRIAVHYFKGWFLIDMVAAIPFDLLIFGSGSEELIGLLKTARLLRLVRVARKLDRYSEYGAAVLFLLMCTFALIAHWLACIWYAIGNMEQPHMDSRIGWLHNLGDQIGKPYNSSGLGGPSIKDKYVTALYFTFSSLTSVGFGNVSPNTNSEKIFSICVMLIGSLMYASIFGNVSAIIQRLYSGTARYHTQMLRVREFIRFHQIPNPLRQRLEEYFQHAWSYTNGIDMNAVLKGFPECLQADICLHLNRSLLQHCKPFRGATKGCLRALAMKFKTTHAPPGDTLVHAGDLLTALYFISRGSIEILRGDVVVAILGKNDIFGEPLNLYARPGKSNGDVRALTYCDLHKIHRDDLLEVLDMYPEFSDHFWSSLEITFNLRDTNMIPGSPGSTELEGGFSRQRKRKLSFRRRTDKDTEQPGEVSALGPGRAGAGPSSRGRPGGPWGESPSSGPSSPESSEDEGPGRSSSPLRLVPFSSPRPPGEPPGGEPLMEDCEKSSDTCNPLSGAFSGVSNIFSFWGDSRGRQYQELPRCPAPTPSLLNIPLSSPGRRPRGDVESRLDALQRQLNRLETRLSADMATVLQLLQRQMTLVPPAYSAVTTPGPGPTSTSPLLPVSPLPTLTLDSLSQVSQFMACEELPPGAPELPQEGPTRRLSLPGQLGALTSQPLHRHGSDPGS
row,SMILES,"hERG current change (%, negative = inhibition) at 10uM [%]"
1,COc1ccccc1NC(=O)C1CCCN(S(=O)(=O)c2ccc3c(c2)CC(C)N3C(C)=O)C1 (stereo not shown),11.1
2,COc1ccc(-n2nnnc2CNC(=O)C(=O)c2c(C)[nH]c3ccccc23)cc1,-0.965
3,O=S(=O)(c1ccccc1)c1nnn2c1nc(NC1CCN(Cc3ccccc3)CC1)c1ccccc12,-8.78
4,COC(=O)C1=C(C(=O)OC)SC(=C2C(=S)C(C)(C)N(C(=O)C(C)C)c3ccccc32)S1,1.27
5,O=C1c2ccc([N+](=O)[O-])cc2C(=O)N1Cc1cccnc1,19.6
6,CCOC(=O)c1nccnc1C(=O)Nc1ccc(C(F)(F)F)cc1,-3.36
7,O=C(NCCc1ccccc1)C(=O)NCC(c1ccco1)N1CCOCC1 (stereo not shown),23.8
8,Cc1ccc(Cl)cc1NC(=O)CCS(=O)(=O)c1cccc2nonc12,12.9
9,Cc1noc(NS(=O)(=O)c2ccc(NC(=O)CS(=O)(=O)c3ccccc3)cc2)c1C,4.63
10,O=C(NNc1c2ccccc2nc2ccccc12)c1ccc(Cl)cc1,15.6
11,COc1ccc(S(=O)(=O)N2CCC(C(=O)NCc3ccncc3)CC2)cc1OC,26.1
12,Brc1ccc(-c2csc(N/N=C/c3ccco3)n2)cc1,16.4
13,Cc1c(C(=O)OCC(=O)Nc2ccc(S(N)(=O)=O)cc2)oc2c1ccc1ccccc12,21
14,COc1ccc(C(=O)N/N=C/c2ccc(OC)c(CN3CCCc4ccccc43)c2)cc1,-11.9
15,Cc1ccc(/C(=C\CN2CCCC2)c2ccccn2)cc1.Cl,-55.4
16,CCOC(=O)c1cc(C#N)c(NCc2ccccc2)nc1C,4.13
17,CCOC(=O)N1CCC(NC(=O)c2ccc3c(c2)sc2nc(-c4ccc(OC)cc4)cn23)CC1,11.8
18,O=C(Cn1c(-c2ccccc2)noc1=O)Nc1ccc(S(=O)(=O)N2CCOCC2)cc1,-10.1
19,Cc1ccc(C(=O)NNC(=O)c2ccncc2)cc1[N+](=O)[O-],8.46
20,Cc1ccc(N(Cc2cc3ccccc3[nH]c2=O)C(=O)c2ccco2)c(C)c1,6.68
21,Cc1ccc(S(=O)(=O)N2CCN(C(=O)c3ccccn3)CC2)c(C)c1,20.1
22,CCOc1ccccc1N1CCN(c2nc3ccccc3nc2C(C#N)C(=O)OC(C)C)CC1 (stereo not shown),23.4

row,SMILES,"hERG current change (%, negative = inhibition) at 10uM [%]"
1,N#Cc1ccccc1/C=N/Nc1nc(-c2ccccc2)c2cc(Br)ccc2n1,-67.4
2,CSCC[C@H](N)C(=O)N1CCC(C(=O)N[C@H](C(=O)NCc2ccccc2F)C(C)C)CC1,1.56
3,O=c1c2ccccc2ncn1-c1ccc([N+](=O)[O-])c(C(F)(F)F)c1,-3.74
4,Cc1ccc(C)c(-c2ccc(=O)n(Cc3ccc(F)cc3Cl)n2)c1,-1.58
5,Cc1nc(N)sc1C(=O)NN,-9.12
6,COC(=O)C1=C(c2cccc(OC)c2OC)C[C@@H]2CC[C@H]1N2C(=O)N1CCCC1,-2.67
7,Cn1cc(/C=C2\SC(=S)N(NC(=O)c3ccccc3Cl)C2=O)c2ccccc21,1.95
8,CCC(C(=O)Nc1cc(C(=O)Nc2cc(C)ccn2)ccc1Cl)c1ccccc1 (stereo not shown),-5.73
9,Cc1oc(-c2ccc(Cl)cc2)nc1CS(=O)CC(=O)NC(C)c1ccccc1 (stereo not shown),-45.8
10,NNC(=O)c1ccc(-c2cccc([N+](=O)[O-])c2)o1,23.4
11,COC(=O)c1c(NC(=O)COC(=O)Cn2cnc3ccccc32)sc(C)c1C,-0.491
12,Cc1ccccc1OCCOC(=O)c1nc2nccc(C)n2n1,-14.1
13,CCOc1ccc(CCNC(=O)c2ccc(NC3=NC4CS(=O)(=O)CC4S3)cc2)cc1 (stereo not shown),10.9
14,CCC1(C)Cc2ccccc2-c2nc(NCCO)[nH]c(=O)c21 (stereo not shown),5.78
15,Cc1nn(C)c(C)c1S(=O)(=O)N(CC(=O)NCc1cccs1)c1ccc(C(C)C)cc1,9.79
16,COc1ccccc1/C=C/C(=O)OC(C)CN1CCOCC1.Cl (stereo not shown),-4.32
17,COc1ccc2c(c1)cc1n2CCN=C1NN.Cl.O,2.89
18,c1ccc2[nH]c(SCc3cscn3)nc2c1,2.76
19,O=C(CSc1ccc(-c2cccnc2)nn1)Nc1ccc(F)cc1F,-33.1
20,CCOC(=O)C1CCCc2c1[nH]c1c(C(N)=O)cccc21 (stereo not shown),-14.7
21,CCOc1ccc(S(=O)(=O)N2CCOCC2)cc1NC(=O)CSCc1ccc(C)cc1,-53.2
22,COc1ccc(CCc2nnc(NS(C)(=O)=O)s2)cc1,8.96

row,SMILES,"hERG current change (%, negative = inhibition) at 10uM [%]"
1,CC(C)C(=O)N1CCN(c2ccc(NC(=O)c3cccs3)cc2)CC1,16.6
2,CN(CC(=O)Nc1cccc(F)c1)C(=O)CCNC(=O)c1ccc(Br)cc1,-20.1
3,CCOC(=O)C1=C(O)/C(=C/c2ccc(CNC(=O)C(=O)Nc3ccc(C)cc3)o2)N=C1C,8.92
4,O=C(Cn1cc(C(F)(F)F)ccc1=O)NC(c1ccccc1)c1ccccc1,5.28
5,Cc1ccc(S(=O)(=O)CC(=O)Nc2nnc(C(C)(C)C)s2)cc1,2.09
6,Cc1ccc(NCc2ccccc2)cc1,11.9
7,CCc1nc2c(c(=O)c3ccccc3n2C)c(=O)n1CCc1ccc(OC)cc1,-74.9
8,CCc1c(C)nc2ncnn2c1N1CCC(C(=O)Nc2cccc(C(C)=O)c2)CC1,-22.6
9,COC(=O)C1CCN(S(=O)(=O)c2cn(C)c(=O)n(C)c2=O)CC1,25.4
10,Cc1cc2cc(CN(Cc3cccs3)C(=S)NCc3ccco3)c(=O)[nH]c2cc1C,-13.9
11,CCN1CCN(C(c2cccs2)C(C)NC(=O)Oc2ccccc2)CC1 (stereo not shown),-38.5
12,O=C(Cn1cc2c(n1)CCCC2)N1CCOCC1,2.86
13,O=C(COc1coc(CN2CCN(c3ccccc3F)CC2)cc1=O)N1CCc2ccccc21,-33.5
14,COc1ccc(-c2[nH]nc3c2C2(C(=O)N(CC(=O)O)c4ccccc42)C(C#N)=C(N)O3)cc1OC (stereo not shown),8.77
15,CC(=O)c1cccc(NC(=O)CC2Oc3ccc(C)cc3NC2=O)c1 (stereo not shown),-0.419
16,O=C(CCN1C(=O)c2ccccc2C1=O)Nc1ccccc1C(=O)N1CCOCC1,-3.17
17,COc1cc(OC)c(C(=O)NCCCn2ccnc2)cc1OC.Cl,13
18,O=C(COC(=O)Cc1ccsc1)NC1CCCCCC1,-12.4
19,CC(C)=CC(=O)Nc1ccc(Cl)cc1,11.8
20,CC(Sc1nc(-c2ccccc2)cc(C(F)(F)F)n1)C(=O)Nc1ccc2c(c1)OCO2 (stereo not shown),10.3
21,COc1ccc(NC(=O)C2=NN(C3CCS(=O)(=O)C3)C(=O)CC2)cn1 (stereo not shown),25.4
22,Cc1ccc(C(=O)NCC(=O)OC(C)C(=O)NC2CCCc3ccccc32)cc1 (stereo not shown),-1.3

row,SMILES,"hERG current change (%, negative = inhibition) at 10uM [%]"
1,CC(C(=O)O)N1C(=O)C2C3c4ccccc4C(c4ccccc43)[C@@H]2C1=O (stereo partly shown),24
2,CCCC12CN3CC(C)(CN(C1)C3c1ccc([N+](=O)[O-])o1)C2=O (stereo not shown),-19.6
3,O=C(c1ccccc1)N1N=C(c2ccccc2O)CC1c1ccc(Br)cc1 (stereo not shown),24
4,O=C(O)c1c2c(nc3ccccc13)-c1ccccc1CC2,19.2
5,CCOc1ccccc1C(=O)Nc1ccc2nc(N3CCN(c4ncccn4)CC3)cc(C)c2c1,-8.08
6,O=C(COc1ccc(Cl)cc1)NCc1nnc(SCC(=O)N2CCCc3ccccc32)o1,-13.1
7,O=C(CSCc1ccc(Br)cc1)N1CCCC1,-5.18
8,CCCc1cc(=O)[nH]c(SCc2ccccc2Cl)n1,-12.3
9,COCc1cc(=O)n2[nH]c(N)nc2n1,2.03
10,CCS(=O)(=O)N1CCC(C(=O)N2CCN(c3ccccc3)CC2)CC1,-6.54
11,CCOc1ccc(NC(=O)c2ccccc2O)cc1,-6.55
12,O=C(c1ccccc1F)c1cn(CC(=O)N2CCCC2)c2ccccc12,-3.87
13,COc1ccc(N(CC(=O)NCc2ccccc2)C(=O)Cn2nnc(-c3ccccc3F)n2)cc1OC,-8.85
14,CCSc1nnc(NC(=O)Cc2ccc(OC)c(S(=O)(=O)N3CCOCC3)c2)s1,11.1
15,COc1cc(/C=C/C(=O)OCC(=O)Nc2ccc(C)c(S(=O)(=O)N3CCCCC3)c2)ccc1O,-0.897
16,O=C(NNC(=S)NC(=O)c1ccccc1)c1ccc(O)cc1,24.7
17,O=[N+]([O-])c1cc(N=Nc2ccc3ccccc3c2)ccc1O,12.8
18,CCOc1ccc(N2C(=O)CC(NCCc3c[nH]c4ccccc34)C2=O)cc1 (stereo not shown),1.45
19,Cn1c(=O)c(C(=O)CN2CCN(S(=O)(=O)c3ccccc3)CC2)c(N)n(Cc2ccccc2)c1=O,-18.7

# Reference: publication PMC4336329 (PLoS ONE, 2015)
